Measured values as given in PubChem BioAssay AID493208 (National Center for Advancing Translational Sciences (NCATS), 2011).
The campaign covered roughly 44,000 compounds. About 340 (0.77%) were called active. Roughly 5% stayed inconclusive and do not appear here. The call rests on the fitted dose curve; in most records, active means well fitted inhibition curve with a large enough effect; inconclusive means small, poorly fitted or top-dose-only effect; inactive means flat fitted curve, though single readings scatter. This is one part of the list.

Assay: Acumen qHTS Assay for Inhibitors of the mTORC1 Signaling Pathway in MEF (Tsc2-/-, p53-/-) Cells: Sytravon;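 further: plate controls were DMSO for no effect and rapamycin for full effect; nearly all actives have a fitted effect of over 50% in size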
Conditions: phospho-rpS6 immunofluorescence/PI, 24 h; series mostly up to 38.3 µM; activity change, negative = inhibition: at the top concentration
Outline: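 Cell-based qHTS: Tsc2-/- p53-/- MEF, 24 h cpd, 37 °C; fix/perm, anti-phospho-S6 Alexa-488 + PI; Acumen 488 nm scan; pS6/PI ratio, % positive cells; rapamycin 7.5 nM = inhibition ref; PI count = viability.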

SMILES | activity change, negative = inhibition
COc1ccc(CCNC(=O)CCn2c(=O)c3ccccc3n(CC(=O)Nc3cc(Cl)ccc3C)c2=O)cc1OC | inactive: -1.44%
CCc1ccccc1NC(=O)Nc1cc(C(=O)NCc2ccccc2OC)ccc1N1CCCC1 | inactive: 2.53%
COc1ccc(NC(=O)CN2C(=O)C(c3ccc(C)cc3)=NC23CCCCCC3)cc1Cl | inactive: 7.3%
Cc1ccc(NC(=O)c2ccc(CNS(=O)(=O)c3ccc4c(c3)C(C)(C)C(=O)N4C)cc2)cc1 | inactive: -18.7%
CN(C)CCNC(=O)C(=O)NCC(c1cccnc1)N1CCN(c2ccccc2)CC1 (configuration not stated) | inactive: 4.98%
COc1cccc(-c2nc(SCC(=O)NCC3CCCO3)c(-c3ccc(Cl)cc3)[nH]2)c1 (configuration not stated) | inactive: 0.389%
Clc1cccc(-n2ncc3c(Nc4ccc5c(c4)OCCO5)ncnc32)c1 | inactive: 5.8%
Cc1ccc(C)c(Cn2c(=O)n(-c3ccc(F)cc3)c(=O)c3sc4ccccc4c32)c1 | inactive: -12.6%
COc1ccc(N2CCN(C(=O)Cn3c(-c4cccs4)cc4ccccc43)CC2)cc1 | inactive: 0.554%
CC(=O)N1CCc2cc(S(=O)(=O)NC(Cc3ccccc3)C(=O)Nc3ccc(C)cc3C)ccc21 (configuration not stated) | inactive: -24.4%
O=C(CSc1nc2ccsc2c(=O)n1Cc1ccccc1F)NCc1ccccc1Cl | inactive: -4.38%
CCc1ccc(NC(=O)CC2C(=O)N(c3ccc(OC)cc3)C(=O)N2Cc2cccs2)cc1 (configuration not stated) | inactive: 2.84%
CCC(=O)N1CCCc2cc(S(=O)(=O)N3CCC(C(=O)Nc4cccc(Cl)c4)CC3)ccc21 | inactive: -6.92%
O=C(Nc1cccc(Cl)c1Cl)c1cc(S(=O)(=O)N2CCCc3ccccc32)ccc1F | inactive: -11.6%
COc1cc(OC)c(N(C)C(=O)CSc2c3c(nc4ccc(Cl)cc24)CCCC3)cc1Cl | inactive: -1.32%
CCOC(=O)c1cnc2c(C)cc(C)cc2c1Nc1ccccc1OCC | inactive: 9.52%
COc1ccc(C(=O)Nc2ccc3oc(-c4cc(Cl)ccc4Cl)nc3c2)cc1Br | inactive: -0.537%
Cc1nn2c(-c3ccco3)ccnc2c1-c1ccc(Cl)cc1 | inactive: -1.83%
O=c1cc2nc(-c3ccccc3)nc(SCCOc3ccc(Cl)cc3)n2[nH]1 | inactive: 1.27%
COC(=O)c1c(NC(=O)/C=C/c2ccc(OC)cc2)sc2c1CCC2 | inactive: 6.14%
COc1ccc(CNC(=O)CSc2ncc3c(n2)-c2cc(Cl)ccc2N(C)S3(=O)=O)cc1 | inactive: -9.65%
CC(C)c1cnc2c(c1SCC(=O)Nc1ccc(C(N)=O)cc1)c(=O)n(C)c(=O)n2C | inactive: 0.236%
CCOC(=O)Cn1c(-c2cccs2)cc2cc(Cl)ccc21 | inactive: -1.29%

SMILES | activity change, negative = inhibition
Cc1ccc(NC(=O)Nc2cccs2)c(C)c1 | inactive: 0.0781%
CCOC(=O)c1cc(OC(=O)c2ccccc2OC)n(-c2ccccc2)n1 | inactive: -1.14%
COc1ccc(N(C(=O)c2cccc(C)c2)S(=O)(=O)c2ccc3c(c2)n(C)c(=O)n3C)cc1 | inactive: -3.56%
CN(CCCNC(=O)c1cc2c(=O)n(C)c3ccccc3c2s1)Cc1ccccc1 | inactive: -0.708%
O=C(Cn1c(=O)n(-c2ccccc2)c(=O)c2ccc(C(=O)NCc3ccc4c(c3)OCO4)cc21)Nc1ccc(F)c(Cl)c1 | inactive: -2.57%
COc1ccc(CCNC(=O)c2ccc3c(c2)N(Cc2cccc(Cl)c2)C(=O)c2ccccc2S3=O)cc1OC (configuration not stated) | inactive: -0.818%
O=C(c1ccccc1Br)N(Cc1ccccc1F)C1CCS(=O)(=O)C1 (configuration not stated) | inactive: -5.81%
CCC(C)NC(=O)CSCc1nc(-c2ccc(C)cc2)oc1C (configuration not stated) | inactive: 2.66%
CN1CCN(C(=O)c2ccc3c(c2)N(Cc2ccc(Cl)cc2)C(=O)c2ccccc2S3(=O)=O)CC1 | inactive: -2.21%
Cc1cccc(CC(=O)NCCc2sc3nc(-c4ccc(F)cc4)nn3c2C)c1 | inactive: -2.13%
COc1ccc(OCC(=O)N(Cc2ccc(C)o2)C2CCS(=O)(=O)C2)cc1 (configuration not stated) | inactive: 2.19%
CCOc1ccc(CCNC(=O)c2ccc(-c3nc(CSc4ccccc4)c(C)o3)cc2)cc1 | inactive: 0.393%
CCc1ccc(N(CC)C(=O)c2sc3nc4n(c(=O)c3c2C)CCCC4)cc1 | inactive: 3.76%
COc1ccccc1NC(=O)CN1C(=O)CCSc2ccccc21 | inactive: -12%
O=C(Cn1c(=O)ccc2cc(S(=O)(=O)N3CCCC3)ccc21)Nc1ccc(Cl)cc1 | inactive: -16.9%
Cc1ccc(Cl)cc1NC(=O)CSCc1cnn(-c2ccccc2)c1-n1cccc1 | inactive: -10%
CCN(C(=O)c1cn(C)c(=O)c2ccccc12)c1cccc(C)c1 | inactive: -11.6%
Cc1cccc(NS(=O)(=O)c2ccc3c(c2)CCN3C(=O)C2CC2)c1C | inactive: 0.371%
CCOc1ccc(N(CC(=O)Nc2ccccc2CC)S(=O)(=O)c2c(C)noc2C)cc1 | inactive: 1.3%
COc1ccc(C(=O)NNc2ncnc3c2cnn3-c2ccc(C)c(Cl)c2)cc1 | inactive: 5%
COc1ccc(NC(=O)c2c(NC(=O)c3ccncc3)sc3c2CCC(C(C)(C)C)C3)cc1 (configuration not stated) | inactive: -11.7%
COc1cccc(Cn2c(=O)n(CCc3ccccc3)c(=O)c3c2c2cc(OC)ccc2n3C)c1 | inactive: -4.57%
Cc1ccc(Cl)cc1NC(=O)C1CCN(S(=O)(=O)c2cccc3nonc23)CC1 | inactive: 2.51%

SMILES | activity change, negative = inhibition
Cc1cccc(NC(=O)CSc2nc3ccccc3nc2N2CCCCC2)c1C | inactive: -4.1%
COc1cc(NC(=O)C(Cc2ccccc2)NS(=O)(=O)c2cccc3nsnc23)cc(OC)c1 (configuration not stated) | inactive: 0.385%
COc1ccc(Br)cc1CNC(=O)c1ccc2c(c1)nc1n2CCC(C)C1 (configuration not stated) | inactive: 1.8%
O=C(Cn1ccn(-c2ccc(F)c(F)c2)c(=O)c1=O)NCCc1ccccc1 | inactive: -22%
Cc1cc(C)cc(NC(=O)c2cc(S(=O)(=O)N3CCC(C)CC3)cn2C)c1 | inactive: -2.65%
CC(=O)c1cccc(NC(=O)CCc2c(C)nc3c(c(C)nn3-c3ccccc3)c2C)c1 | inactive: -1.27%
CCCCNc1nc(Oc2ccc(=O)n(C)n2)nc(N2CCOCC2)n1 | inactive: 1.7%
O=C(CCC1N=C2c3ccccc3N=C(SCc3cccc(Cl)c3)N2C1=O)N1CCN(c2ccccc2)CC1 (configuration not stated) | inactive: -2.74%
CCOc1ccc(-c2cc3c(=O)n(CC(=O)Nc4cc(F)ccc4C)ccn3n2)cc1 | inactive: 8.57%
Cc1cc(C)c2c(=O)cc(C(=O)Nc3c(C)n(C)n(-c4ccccc4)c3=O)oc2c1 | inactive: -3.31%
COc1ccc(C(=O)c2c(N)c(-c3nc(-c4ccc(OC)cc4)cs3)c3ccccn23)cc1 | inactive: 0.902%
COc1cc2[nH]c(=O)n(CCC(=O)N3CCN(c4ccc(Cl)cc4)CC3)c(=O)c2cc1OC | inactive: -19%
CCn1nc(-c2ccccc2)c(-c2ccccc2)c(C(=O)Nc2ccccc2C#N)c1=O | inactive: 0.0943%
Cc1cc(C)c(/C=C/c2onc(C)c2S(=O)(=O)N2CCC(C(=O)NCc3ccccc3Cl)CC2)c(C)c1 | inactive: 4.75%
COc1ccc(S(=O)(=O)c2c(O)c3ccc(C(=O)NCc4ccc(Cl)cc4)cc3[nH]c2=O)cc1 | inactive: 0.781%
CCOC(=O)C1CCN(C(=O)Cn2ncc3c4ccccc4n(Cc4ccc(F)cc4)c3c2=O)CC1 | inactive: -4.9%
Cc1csc2nc(COc3ccc(NC(=O)COc4ccccc4)cc3)cc(=O)n12 | inactive: 0.0593%
C=CCc1ccccc1OCc1nc2ccccc2n1CC | inactive: 2.99%
CCN(Cc1ccccc1)C(=O)Cn1c(=O)n(-c2cccc(C)c2)c(=O)c2c1c1cc(C)ccc1n2C | inactive: -4.41%
Cc1ccc2oc3c(c(=O)c2c1)C(c1ccc([N+](=O)[O-])cc1)N(CCCN1CCOCC1)C3=O (configuration not stated) | inactive: 1.36%
O=C(CN1C(=O)c2cccnc2Oc2ccc(Cl)cc21)NCCc1ccccc1 | inactive: -8.4%
CC(C)(C)C(=O)Cn1c(=O)n(-c2ccccc2)c(=O)c2c3c(sc21)CCC3 | inactive: 6.99%
Cc1ccc(NC(=O)CN2C(=O)COc3ccc(S(=O)(=O)NC4CCCC4)cc32)cc1Cl | inactive: -1.5%

SMILES | activity change, negative = inhibition
Cc1cc(NC(=O)CSc2ncc(C(=O)Nc3ccc(Cl)cc3)c(=O)n2C)no1 | inactive: -3.44%
Cc1ccc(CNC(=O)CN(c2cccc(C)c2C)S(=O)(=O)c2ccccc2)cc1 | inactive: 3.15%
CCC(CC)C(=O)Nc1ccc2nc(SCC(=O)N3CCc4ccccc43)sc2c1 | inactive: -0.476%
CCOC(=O)c1c(-c2ccc(C)cc2)csc1NC(=O)c1cc(-c2ccc(C)c(F)c2)on1 | inactive: 1.77%
CCCCNc1ccc(-c2nc(-c3ccco3)no2)cc1[N+](=O)[O-] | inactive: -0.909%
CCOc1ccc(C(=O)Nc2cccc(NC(=O)c3ccc(C(C)(C)C)cc3)c2)cc1Br | inactive: 9.19%
Cn1c2ccccc2c2cnn(CC(=O)N3CCN(c4cccc(C(F)(F)F)c4)CC3)c(=O)c21 | inactive: -7.59%
Cc1cccc(N2CCN(S(=O)(=O)c3cc(Cl)ccc3Cl)CC2)c1C | inactive: -21.7%
CC(=O)c1cccc(NC(=O)C2CCCN(C(=O)c3cnn(-c4ccccc4)c3-n3cccc3)C2)c1 (configuration not stated) | inactive: -2.29%
COc1ccc(-c2nc(SCC(=O)Nc3ccc4c(c3)OCCO4)c(-c3ccc(F)cc3)[nH]2)cc1OC | inactive: -9.49%
COc1ccc(CC(=O)NCc2ccc3c(c2)CCN3C(C)=O)cc1 | inactive: 0.595%
O=C(c1ccc2c(c1)N(Cc1ccc(F)cc1)C(=O)c1ccccc1S2(=O)=O)N1CCN(Cc2ccccc2)CC1 | inactive: 1.51%
CC1=C(C(N)=O)C(c2ccc(F)cc2)n2nc(-c3ccccc3Cl)nc2N1 (configuration not stated) | inactive: -9.94%
Cc1ccc(NC(=O)CCCn2c(=O)c3cccn3c3ccccc32)cc1C | inactive: -8.82%
CC(C)CC(=O)n1nc(-c2cccnc2)nc1NCc1ccc(F)cc1 | inactive: -3.61%
COCCCNC(=O)c1ccc(-n2c(-c3ccccc3)cc3c2CCCC3)cc1 | inactive: -19.8%
COc1cccc(-c2nnc(SCC(=O)N3CCC(C)CC3)o2)c1 | inactive: -7.18%
O=C(OCc1cc(=O)n2nc(C3CCCCC3)sc2n1)c1ccccc1Cl | inactive: -0.708%
Cc1cc(C)n(-c2nc3ccccc3nc2Nc2ccc(Cl)c(C(=O)OC(C)C)c2)n1 | inactive: -0.161%
COc1ccc(OCC(=O)OCc2cc(=O)n3nc(-c4cccs4)sc3n2)cc1 | inactive: -3.55%
Cc1ccc(Cl)cc1NC(=O)Cn1c(=O)n(Cc2ccccc2)c(=O)c2oc3ccccc3c21 | inactive: 1.95%
Cc1ccc(CCNC(=O)CCCn2c(=O)c3ccccc3n(Cc3ccccc3C#N)c2=O)cc1 | inactive: 4.62%
CCn1cc2c(n1)-c1c(oc(C(=O)Nc3cccc(C)c3C)c1C)CC2 | inactive: -0.213%
